For some assays here: The strong results were mostly taken out for another list; the other results follow. This is a selection; strong and weak results do not stand in their true shares.
Experiments:
[1] = biological target: Tyrosine-protein kinase SYK (Homo sapiens) (UniProt P43405); conditions: at 1 µM
[2] = biological target: T1, Tyrosine-protein kinase Tec (Homo sapiens) (UniProt P42680); conditions: at 0.1 µM
T1 sequence (whole entry): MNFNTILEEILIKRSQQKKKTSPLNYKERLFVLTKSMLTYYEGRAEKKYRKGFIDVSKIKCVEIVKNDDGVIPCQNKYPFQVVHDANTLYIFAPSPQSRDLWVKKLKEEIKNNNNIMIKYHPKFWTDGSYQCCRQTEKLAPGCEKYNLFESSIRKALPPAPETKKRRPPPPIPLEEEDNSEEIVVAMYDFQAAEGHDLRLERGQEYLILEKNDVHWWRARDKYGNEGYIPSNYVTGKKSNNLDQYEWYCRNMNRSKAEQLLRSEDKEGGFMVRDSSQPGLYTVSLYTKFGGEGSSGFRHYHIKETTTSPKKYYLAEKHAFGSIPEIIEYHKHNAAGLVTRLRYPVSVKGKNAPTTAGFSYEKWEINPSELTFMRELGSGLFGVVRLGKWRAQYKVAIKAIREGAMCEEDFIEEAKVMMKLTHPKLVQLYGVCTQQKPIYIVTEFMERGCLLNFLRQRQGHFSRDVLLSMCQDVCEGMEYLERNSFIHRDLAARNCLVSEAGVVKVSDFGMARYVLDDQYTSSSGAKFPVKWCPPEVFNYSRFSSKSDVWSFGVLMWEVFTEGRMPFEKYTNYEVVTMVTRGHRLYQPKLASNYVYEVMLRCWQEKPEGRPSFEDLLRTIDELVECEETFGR

[3] = biological target: T1, Tyrosine-protein kinase Tec (Homo sapiens); conditions: at 1 µM
[4] = biological target: Angiopoietin-1 receptor (Homo sapiens) (UniProt Q02763); conditions: at 0.1 µM
[5] = biological target: Angiopoietin-1 receptor (Homo sapiens) (UniProt Q02763); conditions: at 1 µM
[6] = biological target: T2, Non-receptor tyrosine-protein kinase TNK1 (Homo sapiens) (UniProt Q13470); conditions: at 0.1 µM
T2 sequence (whole entry): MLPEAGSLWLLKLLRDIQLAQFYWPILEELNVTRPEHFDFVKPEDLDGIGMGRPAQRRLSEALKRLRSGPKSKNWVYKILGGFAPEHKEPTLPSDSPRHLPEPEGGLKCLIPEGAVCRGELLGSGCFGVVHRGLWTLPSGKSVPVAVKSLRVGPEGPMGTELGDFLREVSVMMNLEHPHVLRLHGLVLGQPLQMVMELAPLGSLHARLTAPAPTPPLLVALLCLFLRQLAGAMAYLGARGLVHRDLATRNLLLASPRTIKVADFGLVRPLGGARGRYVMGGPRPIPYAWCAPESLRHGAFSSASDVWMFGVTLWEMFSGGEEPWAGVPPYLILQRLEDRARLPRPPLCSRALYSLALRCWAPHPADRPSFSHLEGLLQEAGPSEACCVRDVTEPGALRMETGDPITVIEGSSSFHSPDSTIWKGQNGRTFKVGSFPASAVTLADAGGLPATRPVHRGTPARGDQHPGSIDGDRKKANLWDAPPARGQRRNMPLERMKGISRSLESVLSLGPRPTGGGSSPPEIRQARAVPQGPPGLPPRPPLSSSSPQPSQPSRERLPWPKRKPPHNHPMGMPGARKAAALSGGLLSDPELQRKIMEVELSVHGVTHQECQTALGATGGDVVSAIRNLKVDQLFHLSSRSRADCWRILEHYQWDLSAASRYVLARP

[7] = biological target: T2, Non-receptor tyrosine-protein kinase TNK1 (Homo sapiens); conditions: at 1 µM
[8] = biological target: Activated CDC42 kinase 1 (Homo sapiens) (UniProt Q07912); conditions: at 0.1 µM
[9] = biological target: Activated CDC42 kinase 1 (Homo sapiens) (UniProt Q07912); conditions: at 1 µM
[10] = biological target: High affinity nerve growth factor receptor (Homo sapiens) (UniProt P04629); conditions: at 0.1 µM
[11] = biological target: High affinity nerve growth factor receptor (Homo sapiens) (UniProt P04629); conditions: at 1 µM
[12] = biological target: BDNF/NT-3 growth factors receptor (Homo sapiens) (UniProt Q16620); conditions: at 0.1 µM
[13] = biological target: BDNF/NT-3 growth factors receptor (Homo sapiens) (UniProt Q16620); conditions: at 1 µM
[14] = biological target: NT-3 growth factor receptor (Homo sapiens) (UniProt Q16288); conditions: at 0.1 µM
[15] = biological target: NT-3 growth factor receptor (Homo sapiens) (UniProt Q16288); conditions: at 1 µM
[16] = biological target: T3, Tyrosine-protein kinase TXK (Homo sapiens) (UniProt P42681); conditions: at 0.1 µM
T3 sequence (whole entry): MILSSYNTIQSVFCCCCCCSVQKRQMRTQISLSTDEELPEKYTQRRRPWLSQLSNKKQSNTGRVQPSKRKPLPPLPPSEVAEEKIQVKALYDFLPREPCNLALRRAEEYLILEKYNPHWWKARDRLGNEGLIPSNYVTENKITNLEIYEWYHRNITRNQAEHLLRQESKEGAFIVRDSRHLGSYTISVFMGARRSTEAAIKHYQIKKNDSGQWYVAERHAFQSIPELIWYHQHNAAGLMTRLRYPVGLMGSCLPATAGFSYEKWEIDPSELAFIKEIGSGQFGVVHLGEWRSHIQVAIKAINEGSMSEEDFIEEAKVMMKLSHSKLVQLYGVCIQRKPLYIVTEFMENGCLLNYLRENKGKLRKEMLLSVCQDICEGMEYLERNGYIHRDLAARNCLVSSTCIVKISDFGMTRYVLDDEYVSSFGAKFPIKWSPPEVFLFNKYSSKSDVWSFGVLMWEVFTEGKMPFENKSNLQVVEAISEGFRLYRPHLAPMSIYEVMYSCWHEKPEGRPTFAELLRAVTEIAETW

[17] = biological target: T3, Tyrosine-protein kinase TXK (Homo sapiens); conditions: at 1 µM
[18] = biological target: Non-receptor tyrosine-protein kinase TYK2 (Homo sapiens) (UniProt P29597); conditions: at 0.1 µM;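 also: each value is a mean of the inhibition readings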
[19] = biological target: T4, Dual specificity protein kinase TTK (Homo sapiens) (UniProt P33981); conditions: at 1 µM;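 also: reported figures are mean TTK inhibition at 1 µM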
T4 sequence (whole entry): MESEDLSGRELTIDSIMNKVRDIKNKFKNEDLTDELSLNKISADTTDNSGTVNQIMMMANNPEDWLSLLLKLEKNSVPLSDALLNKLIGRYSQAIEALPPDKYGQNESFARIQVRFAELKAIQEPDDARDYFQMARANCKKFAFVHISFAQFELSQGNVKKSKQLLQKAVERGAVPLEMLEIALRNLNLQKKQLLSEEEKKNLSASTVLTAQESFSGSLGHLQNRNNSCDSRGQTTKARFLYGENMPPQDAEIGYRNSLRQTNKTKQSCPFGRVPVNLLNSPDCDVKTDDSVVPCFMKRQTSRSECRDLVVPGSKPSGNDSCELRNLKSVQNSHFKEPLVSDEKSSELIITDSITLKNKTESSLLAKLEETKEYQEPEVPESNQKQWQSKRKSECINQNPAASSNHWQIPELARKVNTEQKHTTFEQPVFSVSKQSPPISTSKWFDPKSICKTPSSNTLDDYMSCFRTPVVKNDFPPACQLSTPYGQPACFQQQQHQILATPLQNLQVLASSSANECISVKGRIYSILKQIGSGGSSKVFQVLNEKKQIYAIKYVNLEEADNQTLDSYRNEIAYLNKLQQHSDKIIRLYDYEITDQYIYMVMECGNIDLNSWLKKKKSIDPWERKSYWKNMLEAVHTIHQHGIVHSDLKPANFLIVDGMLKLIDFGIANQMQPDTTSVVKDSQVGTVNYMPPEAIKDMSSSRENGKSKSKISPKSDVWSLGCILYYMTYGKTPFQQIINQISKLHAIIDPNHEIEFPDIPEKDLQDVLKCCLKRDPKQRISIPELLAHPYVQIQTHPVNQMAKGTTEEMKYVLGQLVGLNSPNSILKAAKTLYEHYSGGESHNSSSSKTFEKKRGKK

[20] = biological target: T5, Aurora kinase A (Homo sapiens) (UniProt O14965); conditions: at 0.1 µM;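 also: each reported value is a mean percent inhibition of Aurora-A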
T5 sequence (whole entry): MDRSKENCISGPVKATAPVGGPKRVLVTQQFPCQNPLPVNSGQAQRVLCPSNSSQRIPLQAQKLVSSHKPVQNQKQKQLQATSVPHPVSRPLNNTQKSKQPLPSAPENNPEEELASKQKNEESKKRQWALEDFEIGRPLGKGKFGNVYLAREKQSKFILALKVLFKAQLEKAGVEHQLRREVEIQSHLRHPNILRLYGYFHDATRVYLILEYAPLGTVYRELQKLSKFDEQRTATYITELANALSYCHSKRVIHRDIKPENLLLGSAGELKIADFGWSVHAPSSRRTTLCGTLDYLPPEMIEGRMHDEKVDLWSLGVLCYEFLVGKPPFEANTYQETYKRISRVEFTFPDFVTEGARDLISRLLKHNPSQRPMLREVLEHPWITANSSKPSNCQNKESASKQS

Chain of UniProt Q02763 (Q02763 whole entry): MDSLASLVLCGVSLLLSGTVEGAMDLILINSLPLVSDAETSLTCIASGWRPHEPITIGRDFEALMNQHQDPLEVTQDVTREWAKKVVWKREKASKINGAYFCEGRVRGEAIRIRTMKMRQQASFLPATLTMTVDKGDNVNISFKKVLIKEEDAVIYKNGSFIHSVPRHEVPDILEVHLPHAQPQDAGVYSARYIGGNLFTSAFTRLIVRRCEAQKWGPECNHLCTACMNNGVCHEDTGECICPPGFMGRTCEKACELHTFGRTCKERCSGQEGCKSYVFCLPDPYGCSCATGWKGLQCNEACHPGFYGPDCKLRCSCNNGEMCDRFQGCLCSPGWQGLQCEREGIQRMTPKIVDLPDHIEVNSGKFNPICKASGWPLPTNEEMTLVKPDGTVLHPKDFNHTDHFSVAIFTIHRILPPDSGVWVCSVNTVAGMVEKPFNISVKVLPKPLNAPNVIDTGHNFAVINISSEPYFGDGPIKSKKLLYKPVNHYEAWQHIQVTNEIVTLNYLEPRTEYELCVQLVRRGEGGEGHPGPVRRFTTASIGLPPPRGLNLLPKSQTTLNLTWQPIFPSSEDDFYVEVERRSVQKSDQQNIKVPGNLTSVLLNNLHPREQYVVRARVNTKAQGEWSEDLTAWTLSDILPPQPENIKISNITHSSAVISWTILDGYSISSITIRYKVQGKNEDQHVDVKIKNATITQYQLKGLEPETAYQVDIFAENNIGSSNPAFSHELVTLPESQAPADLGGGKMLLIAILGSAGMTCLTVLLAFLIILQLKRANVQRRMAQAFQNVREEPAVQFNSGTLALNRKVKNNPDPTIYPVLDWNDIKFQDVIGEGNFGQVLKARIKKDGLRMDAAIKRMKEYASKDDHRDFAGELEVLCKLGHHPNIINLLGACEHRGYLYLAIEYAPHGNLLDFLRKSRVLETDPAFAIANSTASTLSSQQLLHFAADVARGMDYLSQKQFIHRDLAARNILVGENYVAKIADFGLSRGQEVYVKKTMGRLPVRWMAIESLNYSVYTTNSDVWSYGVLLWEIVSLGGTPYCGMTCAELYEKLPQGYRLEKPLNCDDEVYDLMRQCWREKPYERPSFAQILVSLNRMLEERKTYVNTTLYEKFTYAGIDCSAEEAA
Chain of UniProt Q16620 (Q16620 whole entry, looked up): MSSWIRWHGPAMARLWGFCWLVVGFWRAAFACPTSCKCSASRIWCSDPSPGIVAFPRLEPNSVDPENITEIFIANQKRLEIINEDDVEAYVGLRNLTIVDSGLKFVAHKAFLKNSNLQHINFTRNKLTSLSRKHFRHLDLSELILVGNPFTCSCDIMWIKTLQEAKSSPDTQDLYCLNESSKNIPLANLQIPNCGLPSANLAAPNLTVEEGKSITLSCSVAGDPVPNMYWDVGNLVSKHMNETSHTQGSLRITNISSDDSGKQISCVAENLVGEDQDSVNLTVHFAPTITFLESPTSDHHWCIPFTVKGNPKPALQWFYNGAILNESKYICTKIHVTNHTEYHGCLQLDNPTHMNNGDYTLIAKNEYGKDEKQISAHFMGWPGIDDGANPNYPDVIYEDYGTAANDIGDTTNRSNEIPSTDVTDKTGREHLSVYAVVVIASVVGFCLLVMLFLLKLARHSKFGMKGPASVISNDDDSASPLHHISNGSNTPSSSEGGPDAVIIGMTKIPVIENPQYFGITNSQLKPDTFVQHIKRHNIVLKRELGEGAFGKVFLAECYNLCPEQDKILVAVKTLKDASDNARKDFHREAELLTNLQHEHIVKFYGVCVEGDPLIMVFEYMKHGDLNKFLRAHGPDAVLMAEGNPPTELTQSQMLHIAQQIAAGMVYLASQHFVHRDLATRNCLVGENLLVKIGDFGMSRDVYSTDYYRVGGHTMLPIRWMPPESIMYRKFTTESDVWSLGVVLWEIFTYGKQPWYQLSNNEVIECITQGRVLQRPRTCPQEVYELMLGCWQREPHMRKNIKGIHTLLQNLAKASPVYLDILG
Chain of UniProt Q07912 (Q07912 whole entry, looked up): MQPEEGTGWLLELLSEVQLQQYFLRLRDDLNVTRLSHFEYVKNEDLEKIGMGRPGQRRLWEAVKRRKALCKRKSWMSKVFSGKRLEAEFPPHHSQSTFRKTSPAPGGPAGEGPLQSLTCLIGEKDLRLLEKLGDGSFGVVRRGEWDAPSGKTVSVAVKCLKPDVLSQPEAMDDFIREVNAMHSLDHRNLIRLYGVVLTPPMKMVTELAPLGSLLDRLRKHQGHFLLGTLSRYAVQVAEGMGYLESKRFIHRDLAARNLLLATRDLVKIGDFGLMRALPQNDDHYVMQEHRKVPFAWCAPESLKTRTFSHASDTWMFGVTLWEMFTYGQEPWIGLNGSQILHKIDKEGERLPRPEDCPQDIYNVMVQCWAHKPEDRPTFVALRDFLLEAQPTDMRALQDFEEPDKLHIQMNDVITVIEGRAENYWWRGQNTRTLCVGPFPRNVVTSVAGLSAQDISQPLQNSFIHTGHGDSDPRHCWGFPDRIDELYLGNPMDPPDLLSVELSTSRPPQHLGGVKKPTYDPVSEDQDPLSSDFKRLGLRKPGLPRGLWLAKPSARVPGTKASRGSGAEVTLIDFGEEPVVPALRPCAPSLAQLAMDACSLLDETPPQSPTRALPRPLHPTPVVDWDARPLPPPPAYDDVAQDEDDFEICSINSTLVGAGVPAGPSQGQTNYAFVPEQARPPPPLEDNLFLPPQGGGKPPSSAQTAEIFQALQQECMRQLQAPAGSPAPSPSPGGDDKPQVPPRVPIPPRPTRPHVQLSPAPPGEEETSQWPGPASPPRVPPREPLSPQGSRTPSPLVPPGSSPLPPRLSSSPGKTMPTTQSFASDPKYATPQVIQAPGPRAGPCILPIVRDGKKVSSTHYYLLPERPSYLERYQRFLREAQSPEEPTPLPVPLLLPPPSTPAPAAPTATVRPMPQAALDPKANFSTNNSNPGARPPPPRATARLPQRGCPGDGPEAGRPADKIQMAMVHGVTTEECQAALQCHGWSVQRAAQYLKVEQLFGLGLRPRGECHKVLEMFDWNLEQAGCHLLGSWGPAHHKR
Chain of UniProt P04629 (P04629 whole entry, looked up): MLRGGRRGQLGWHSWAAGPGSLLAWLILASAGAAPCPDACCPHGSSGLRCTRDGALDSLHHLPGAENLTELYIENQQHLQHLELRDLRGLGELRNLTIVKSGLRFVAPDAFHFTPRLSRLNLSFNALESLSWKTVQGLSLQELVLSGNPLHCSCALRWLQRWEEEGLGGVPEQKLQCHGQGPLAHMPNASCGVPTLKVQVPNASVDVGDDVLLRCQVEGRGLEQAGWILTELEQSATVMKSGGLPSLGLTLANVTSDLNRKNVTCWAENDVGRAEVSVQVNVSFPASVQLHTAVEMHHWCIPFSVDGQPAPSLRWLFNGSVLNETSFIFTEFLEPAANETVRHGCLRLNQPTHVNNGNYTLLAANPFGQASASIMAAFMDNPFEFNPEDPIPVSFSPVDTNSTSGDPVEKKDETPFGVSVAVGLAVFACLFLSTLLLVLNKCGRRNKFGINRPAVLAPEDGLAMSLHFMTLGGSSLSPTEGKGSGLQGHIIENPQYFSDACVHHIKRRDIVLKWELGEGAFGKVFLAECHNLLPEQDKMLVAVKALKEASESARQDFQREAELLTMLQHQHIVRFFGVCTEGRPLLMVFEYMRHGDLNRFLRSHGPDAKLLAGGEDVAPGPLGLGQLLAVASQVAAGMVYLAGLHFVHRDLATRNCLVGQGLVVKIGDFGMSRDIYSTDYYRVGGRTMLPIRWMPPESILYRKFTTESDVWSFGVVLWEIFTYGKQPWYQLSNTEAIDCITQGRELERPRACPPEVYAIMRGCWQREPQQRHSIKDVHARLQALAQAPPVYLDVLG
Chain of UniProt Q16288 (Q16288 whole entry, looked up): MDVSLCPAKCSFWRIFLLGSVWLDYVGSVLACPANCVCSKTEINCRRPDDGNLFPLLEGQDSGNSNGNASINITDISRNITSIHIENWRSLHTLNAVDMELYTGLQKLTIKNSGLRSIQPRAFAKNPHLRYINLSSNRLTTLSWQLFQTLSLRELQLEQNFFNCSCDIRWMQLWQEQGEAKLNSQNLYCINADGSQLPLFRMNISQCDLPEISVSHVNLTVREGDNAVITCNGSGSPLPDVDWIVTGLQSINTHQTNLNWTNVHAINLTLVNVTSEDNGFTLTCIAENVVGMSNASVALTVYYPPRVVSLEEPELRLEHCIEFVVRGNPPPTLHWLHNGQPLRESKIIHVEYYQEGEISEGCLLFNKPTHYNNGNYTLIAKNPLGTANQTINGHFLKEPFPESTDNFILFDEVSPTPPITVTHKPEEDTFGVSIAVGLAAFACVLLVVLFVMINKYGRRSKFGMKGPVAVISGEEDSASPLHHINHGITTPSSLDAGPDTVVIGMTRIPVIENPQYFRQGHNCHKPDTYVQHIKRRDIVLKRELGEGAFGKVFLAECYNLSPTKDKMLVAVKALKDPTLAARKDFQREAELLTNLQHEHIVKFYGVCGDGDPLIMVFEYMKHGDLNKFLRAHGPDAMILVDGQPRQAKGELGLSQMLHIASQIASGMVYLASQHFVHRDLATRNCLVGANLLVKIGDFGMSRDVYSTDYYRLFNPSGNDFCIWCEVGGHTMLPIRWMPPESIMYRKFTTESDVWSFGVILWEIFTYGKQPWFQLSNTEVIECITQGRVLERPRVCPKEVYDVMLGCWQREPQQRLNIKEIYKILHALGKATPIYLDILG

Row | SMILES | inhibition [1] | inhibition [2] | inhibition [3] | inhibition [4] | inhibition [5] | inhibition [6] | inhibition [7] | inhibition [8] | inhibition [9] | inhibition [10] | inhibition [11] | inhibition [12] | inhibition [13] | inhibition [14] | inhibition [15] | inhibition [16] | inhibition [17] | inhibition [18] | inhibition [19] | inhibition [20]
1 | NC(=O)CCc1ccccc1Oc1nccc(-c2c(-c3ccc(F)cc3)ncn2C2CCNCC2)n1 | 0.03% | -4.39% | -3.02% | -0.84% | 1.36% | -0.89% | -3.9% | 0.03% | -0.73% | 0% | 1.91% | -1.77% | -0.62% | -0.36% | 0.35% | -2.51% | 0.04% | -0.18% | 1.46% | -3.22%
2 | Fc1ccc(-c2ncn(C3CCNCC3)c2-c2ccnc(Oc3ccc(Cl)cc3)n2)cc1 | 0.42% | -1.47% | 0.25% | -0.53% | 0.87% | 1.46% | 1.53% | 0.23% | 0.56% | 1.77% | 3.02% | 3.05% | 0.87% | 0.66% | 0.67% | 1.72% | 1.21% | -0.81% | 4.46% | 0.56%
3 | Fc1ccc(-c2ncn(C3CCNCC3)c2-c2ccnc(Oc3cccc(C(F)(F)F)c3)n2)cc1 | -3.7% | 1.75% | 7.26% | 1.42% | 6.06% | 3.98% | 6.8% | 1.79% | 1.64% | 2.69% | 0.88% | 2.5% | 2.43% | 1.67% | 2.38% | -0.4% | 5.97% | -3.63% | 14.7% | 5.21%
4 | COc1ccccc1C1=C(Nc2ccccc2)C(=O)NC1=O | -0.56% | 3.74% | 5.84% | 2.63% | 10.5% | 1.18% | 16.1% | 1.03% | 3.97% | 5.65% | 2.37% | 1.68% | 6.04% | 2.18% | 5.53% | 2.66% | 5.43% | -2.23% | 9.73% | 2.93%
5 | O=C(O)c1ccc(Oc2nccc(-c3c(-c4ccc(F)cc4)ncn3C3CCNCC3)n2)cc1 | 2.11% | 8.41% | 3.8% | 4.07% | 2.55% | 2.93% | 4.92% | 0.73% | 0.31% | 2.34% | 6.32% | 3.29% | 3.09% | 1.7% | 2.29% | 7.4% | 5.95% | -2.36% | 9.66% | 2.47%
6 | O=C1NC(=O)C(c2ccccc2Cl)=C1Nc1cc(Cl)c(O)c(Cl)c1 | -0.92% | 3.62% | 7.44% | 2.11% | 2.62% | 2.9% | 11.5% | 1.56% | 2.62% | 3.35% | 2.64% | 2.11% | 3.03% | 2.93% | 6.27% | 3.36% | 5.83% | -4.14% | 14.4% | 1.59%
7 | Fc1ccc(Oc2nccc(-c3c(-c4ccc(F)cc4)ncn3C3CCNCC3)n2)cc1 | 4.17% | 4.04% | -0.84% | 4.93% | 3.93% | 2.48% | 1.8% | -0.14% | 0.27% | 2.73% | 6.25% | 2.64% | 3.55% | 3.07% | 2.12% | 4.26% | 0.51% | -3.11% | 7.87% | -1.57%

Source: ChEMBL document CHEMBL1961873, “Compounds: GSK PKIS; Assays: Nanosyn kinase panel” (2012)
